Measurements: PubChem BioAssay AID1346428 (National Center for Advancing Translational Sciences (NCATS), 2018)
In all, about 48,000 compounds went through this assay and about 1,200 (2.5%) were called active. About 2% were inconclusive and are not listed.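 The calls were made as follows: active = activation of at least 60% and not above a set upper limit (about 1 call in 100 departs from these limits); inconclusive = activation of 40% to 60%, or above that upper limit; inactive = activation under 40%.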 The list shows a part of the results.

Each compound was assayed against Probable G-protein coupled receptor 32 (Homo sapiens) (UniProt O75388) (assay: qHTS for Agonists of Human Resolvin D1 Receptor DRV1). Conditions: CHO-K1 GPR32 beta-arrestin PathHunter luminescence, 90 min; at 76.9 µM; hits give high values; zero percent set by DMSO-only wells.
UniProt O75388, sequence (O75388 whole entry, looked up, the tested form may be a part): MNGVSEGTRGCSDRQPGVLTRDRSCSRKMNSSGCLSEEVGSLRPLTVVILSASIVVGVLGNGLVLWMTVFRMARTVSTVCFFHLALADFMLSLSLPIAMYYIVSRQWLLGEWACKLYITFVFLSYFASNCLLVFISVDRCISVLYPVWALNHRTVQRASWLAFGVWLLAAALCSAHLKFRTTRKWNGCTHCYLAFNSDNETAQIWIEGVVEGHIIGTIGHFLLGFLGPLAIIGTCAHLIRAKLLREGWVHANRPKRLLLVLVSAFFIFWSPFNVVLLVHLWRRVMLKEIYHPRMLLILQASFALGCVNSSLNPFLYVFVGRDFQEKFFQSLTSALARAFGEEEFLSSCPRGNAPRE
Outline: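 GPR32 activation in stably transfected CHO-K1 cells, detected as beta-arrestin recruitment by enzyme-fragment complementation. Compound exposure: 90 min, 37 °C.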
Also: 0% is about no effect.

activation, inactive:
Cn1c(=O)c2c(nc(N3CCOCC3)n2Cc2ccccc2Cl)n(C)c1=O 9.15%
O=C(NCCc1ccc(Cl)cc1)c1nnc(Cc2ccc(Cl)cc2Cl)o1 0.637%
CC(C)Cn1c(-c2ccccc2Cl)nc2ccccc21 14.4%
CCOc1ccc(-c2c(C)nn3c(C)c(C(=O)NCCN(C)C)cnc23)cc1OCC -2.74%
O=C(CSc1nncn2c1cc1occc12)Nc1ccc(F)c(Cl)c1 -2.83%
COc1ccc(N(CC(=O)NCCc2ccc(C)cc2)S(=O)(=O)c2c(C)nn(C)c2C)cc1 -5.05%
CC(C)Cn1c(CN2CCN(c3cccc(Cl)c3)CC2)nc2c1c(=O)[nH]c(=O)n2C 2.35%
COc1cc(OC)cc(-c2nnc(SCC(=O)c3ccc([N+](=O)[O-])cc3)o2)c1 42.1%
O=C(NCCc1ccc(Cl)cc1)c1ccc2nc(CCc3ccccc3)oc2c1 -8.33%
Cc1nc(S(=O)(=O)N2CCN(c3cccc(Cl)c3)CC2)cn1C -0.439%
COc1cc(Nc2nn(-c3ccc(OC(F)(F)F)cc3)nc2C(C)=O)cc(OC)c1 -8.4%
COc1ccc(C)cc1NC(=O)c1nnn(CC(=O)Nc2c(C)cccc2C)c1N 1.64%
Cc1ccc(C)c(S(=O)(=O)c2nnn3c2nc(NC2CCCC2)c2sccc23)c1 -27.4%
Cc1ccc(S(=O)(=O)c2cn(Cc3ccccc3)c3cc(N4CCCC4)c(F)cc3c2=O)c(C)c1 -18.1%
CSc1nnc(NC(=O)c2cc(=O)c3cc(C)c(C)cc3o2)s1 -2.4%
CCCCN(CC)C(=O)c1ccc2c(c1)NC(=O)c1ccccc1S2 50%
CCc1cccc(NC(=O)c2cc3c(=O)oc4ccc(C)cc4c3s2)c1 -4.69%
COc1ccc(CNC(=O)C(CC(C)C)NS(=O)(=O)c2ccc3c(c2)oc(=O)n3C)cc1 (stereo not given) -0.0003%
COc1ccc(OC)c([C@@H]2Nc3ccc(C(=O)O)cc3[C@@H]3C=CC[C@@H]32)c1 -12.3%
Cc1cccc(C)c1NC(=O)C(=O)NCC(c1ccc2c(c1)OCO2)N1CCN(C)CC1 (stereo not given) 4.93%
CCOc1c(CNCCSc2nnnn2C)cccc1OC 7.61%
O=c1c(-c2ccccc2)c1-c1ccccc1 18.9%
CCc1cccc(NC(=O)C2CCCN2S(=O)(=O)c2ccc3nc(-c4ccccc4)[nH]c3c2)c1 (stereo not given) -3.73%
Cc1ccc(Cn2c(=O)n(Cc3ccc(C(=O)NC4CCN(Cc5ccccc5)CC4)cc3)c(=O)c3ccccc32)cc1 -14.1%
CC(=O)c1ccc(NC(=O)CCn2cccn2)cc1 -3.6%
O=C(c1ccc(Br)cc1)N(Cc1ccco1)c1ccccn1 -10.7%
CN1C(=O)Cc2cc(S(=O)(=O)NCc3ccccc3Cl)ccc21 -15%
Cc1ccc2oc(C(=O)N3CCC(c4nc5ccccc5s4)CC3)c(C)c2c1 -30.1%
COc1ccc(N(CC(=O)N2CCCCC2)S(=O)(=O)c2ccc(OC)c(OC)c2)cc1 -5.02%
CCc1ccc(NC(=O)Cn2c(=O)n(-c3cccc(OC)c3)c(=O)c3c(C)c(C(=O)N(C)C)sc32)cc1 2.81%
Cc1ccc(-n2c(C)nc3c(cnn3-c3ccccc3)c2=O)cc1 -2.49%
CCCc1ccc(OCc2ccc(C(=O)Nc3ccccc3C(=O)OC)o2)cc1 -7.63%
CCc1ccc(CNC(=O)c2cccc(-n3c(C)nc4cccnc43)c2)cc1 25.7%
COc1ccc(CCNC(=O)c2ccc3c(c2)nc2n3CCCCC2)cc1OC -13.9%
CCCn1cnc2cc(NC(=O)c3cc(OC)c(OC)c(OC)c3)ccc21 -16.7%
Cc1ccc(CNS(=O)(=O)c2c(C)nc3sc(C)cn3c2=O)cc1 -11.5%
Cc1ccc(Cl)cc1NC(=O)CN1C(=O)c2ccccc2Sc2ncccc21 -3.62%
Cc1cccc(N2CCN(Cc3nnc(-c4cccc(Br)c4)o3)CC2)c1C -2.75%
CCCOC(=O)c1cccc(NC(=O)CSc2nnc3cc(C)c4ccccc4n23)c1 -4.91%
CC(=O)c1ccc(NC(=O)c2nc(-c3ccccc3)n(-c3ccc(C)cc3)n2)cc1 -39.4%
O=C(NCc1cccc(Cl)c1)C1CCCN(c2nn3cc(-c4ccc(F)cc4)nc3s2)C1 (stereo not given) -16%
Clc1ccc2nc(-c3ccc(N4CCOCC4)cc3)c(Nc3ccccc3)n2c1 -31.8%
COc1ccccc1NC(=O)Cn1c(=O)oc2cc(S(=O)(=O)NCc3ccccc3)ccc21 14.8%
Cc1cccc(NC(=O)c2ccc3oc(=O)c(S(=O)(=O)c4ccc(F)cc4)cc3c2)c1C -1.91%
CCOc1ccc(CNc2cc(C)nc3nc(-c4cccc(C)c4)nn23)cc1OC -30.9%
CCc1ccccc1N(C)C(=O)c1nn(-c2ccc(OC)cc2)c(=O)c2c1c1ccccc1n2C -6.19%
CCOc1ccc(S(=O)(=O)c2cc3cccc(OCC)c3oc2=O)cc1 7.56%
CC1CCc2c(sc3nnn(Cc4ccccc4Cl)c(=O)c23)C1 (stereo not given) -6.24%
COc1ccccc1OCc1nc2ccccc2n1Cc1ccccc1 -13.4%
CCOc1ccccc1C1C(C(=O)Nc2ccccc2)=C(C)Nc2nc(-c3ccccc3)nn21 (stereo not given) 23.4%
CCCCn1c(SCC(=O)c2ccccc2)nc2sc3c(c2c1=O)CCCC3 13.6%
CCOC(=O)c1cc(C)n(CC2CCC(C(=O)Nc3cccc(C(C)=O)c3)CC2)c1C (stereo not given) -7.81%
CCOc1ccccc1CNCc1c(C(=O)O)n(Cc2ccccc2)c2cc(OC)ccc12 38.1%
Cc1ccc(S(=O)(=O)Nc2ccc(-c3ccc(N4CCCCCC4)nn3)cc2)c(C)c1 -2.05%
CCOc1ccccc1Oc1ncnc2c1oc1ccccc12 -10.6%
